Laboratory results: PubChem BioAssay AID881 (National Center for Advancing Translational Sciences (NCATS), 2007)
Out of some 110,000 compounds screened, about 610 (0.55%) were called active. This list was built around the results that the source calls inconclusive (neither active nor inactive); the mix of calls is not that of the screen. Calls come from the whole dose curve; as a rule, active = well fitted inhibition curve with a large enough effect; inconclusive = small, poorly fitted or top-dose-only effect; inactive = no such curve, though single readings can be large or run the other way. Potencies beside an inconclusive call are fits to weak or partial responses and may not hold up.

Target: Polyunsaturated fatty acid lipoxygenase ALOX15B (Homo sapiens) (UniProt O15296)
Sequence of UniProt O15296 (O15296 whole entry, looked up): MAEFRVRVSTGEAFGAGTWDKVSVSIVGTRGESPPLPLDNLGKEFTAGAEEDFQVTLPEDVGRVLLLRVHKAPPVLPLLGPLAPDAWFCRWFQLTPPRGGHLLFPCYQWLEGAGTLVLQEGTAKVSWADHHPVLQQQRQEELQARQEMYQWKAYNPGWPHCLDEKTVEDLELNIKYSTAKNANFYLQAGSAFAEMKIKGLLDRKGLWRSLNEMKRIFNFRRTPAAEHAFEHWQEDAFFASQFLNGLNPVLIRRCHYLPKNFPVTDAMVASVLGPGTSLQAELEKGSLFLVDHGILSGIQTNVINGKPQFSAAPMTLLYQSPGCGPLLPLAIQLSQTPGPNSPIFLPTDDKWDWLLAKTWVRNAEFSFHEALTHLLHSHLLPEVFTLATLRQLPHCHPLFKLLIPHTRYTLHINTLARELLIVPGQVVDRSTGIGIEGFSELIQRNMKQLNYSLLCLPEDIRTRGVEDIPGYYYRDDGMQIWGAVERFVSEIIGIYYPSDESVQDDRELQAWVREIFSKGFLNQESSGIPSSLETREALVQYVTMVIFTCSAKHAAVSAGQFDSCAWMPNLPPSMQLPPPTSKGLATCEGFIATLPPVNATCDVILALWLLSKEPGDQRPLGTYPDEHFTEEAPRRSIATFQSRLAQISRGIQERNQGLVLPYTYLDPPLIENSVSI
Assay: qHTS Assay for Inhibitors of 15-hLO-2 (15-human lipoxygenase 2); note: nearly all actives have a fitted effect of over 60% in size
Settings: purified 15hLO-2, xylenol orange hydroperoxide absorbance; activity change, negative = inhibition: at 57.1 µM (top of the series) unless noted
Procedure, shortened: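 Purified human 15hLO-2 (50 nM final) preincubated with compounds 15 min at room temperature in 25 mM Hepes pH 7.5, 0.01% Triton X-100, then 45 uM arachidonic acid added for 90 min; hydroperoxide detected via ferrous/xylenol orange, 573/405 nm absorbance ratio.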
% is set by controls: 0 for no effect and ±100 for the full control effect; potency is the fitted concentration of half-maximal effect; tags give direction and shape of the fitted curve.

Row | Compound | Potency | activity change, negative = inhibition
1 | COc1ccc(S(=O)(=O)NCCSCc2ccccc2C)cc1Br | inconclusive: 15.8 µM [inhibitor, partial curve] | 
2 | c1ccc2[nH]c(-c3ccnc4ccccc34)nc2c1 | inconclusive: 25.1 µM [inhibitor, single point] | 
3 | CN(O)/C=C1\C(=O)Nc2ccccc21 | inconclusive: 20 µM [inhibitor, partial curve] | 
4 | CCCN1C(=O)/C(=C/c2ccc(N3CCCC3)c(C)c2)NC1=S | inconclusive: 15.8 µM [inhibitor, partial curve] | 
5 | O=C(CCCOc1ccc(Cl)cc1)N1CCCCCC1 | inactive | 
6 | O=CN(/C=C1\Sc2ccccc2C1=O)Cc1ccccc1 | inconclusive: 20 µM [inhibitor, single point] | 
7 | C=CC(C1=CC(=O)C(OC)=CC1=O)c1ccc(OC)cc1 (stereo not drawn) | inconclusive: 10 µM [inhibitor, partial curve] | 
8 | CC(C)OP(=O)(OC(C)C)C(NC(=O)c1ccc(Br)cc1)c1ccccc1 (stereo not drawn) | inconclusive: 0.199 µM [inhibitor, full curve, poor fit] | 
9 | Nc1ccc(Nc2ccccc2)cc1 | inconclusive: 2.51 µM [inhibitor, full curve] | 
10 | CC(=O)Oc1oc(-c2ccccc2)nc1/C=N/c1ccccn1 | inconclusive: 12.6 µM [inhibitor, partial curve] | 
11 | Cc1cccn2c(=O)c3cc(C#N)c(=O)n(CC4CCCO4)c3nc12 (stereo not drawn) | inconclusive: 7.94 µM [inhibitor, full curve] | 
12 | N#C/C(=C/c1ccc(N2CCOCC2)o1)c1ccc(Br)cc1 | active: 10 µM | 
13 | COCC(C)OC(=O)C(C#N)c1nc2ccccc2nc1N1CCN(Cc2ccccc2)CC1 (stereo not drawn) | inactive | 
14 | CSc1nnc2c3cc(C)ccc3n(Cc3ccccc3)c2n1 | inconclusive: 12.6 µM [inhibitor, partial curve] | 
15 | Cc1nc(SCC(=O)NC(C)c2ccccc2)c2oc3ccccc3c2n1 (stereo not drawn) | inconclusive: 15.8 µM [inhibitor, partial curve] | 
16 | Cc1cc(NC(=O)Cc2cccs2)no1 | inconclusive: 12.6 µM [inhibitor, single point] | 
17 | CC(=O)OC1CC2C(C)(C)C(O)CC(O)[C@@]2(C)C2CC[C@@]3(C)C(=CC(=O)OC3c3ccoc3)[C@]12C (stereo partly drawn) | inactive | 
18 | Cc1cccc(C)c1NC(=O)CN1C(=O)S/C(=C\c2cccn2C)C1=O | inactive | 
19 | Cc1cc(NC(=O)CSc2nc3ccccc3c(=O)n2C2CCCC2)no1 | inactive | 
20 | CC(C)CC(=O)NC(=S)Nc1ccc(NC(=O)c2cccs2)cc1 | inactive | 
21 | C=CCSC1=N/C(=C\c2ccc3c(c2)OCO3)C(=O)S1 | inactive | 
22 | CCOC(=O)CSC1=NC(=O)/C(=C\c2ccc(Cl)cc2)S1 | inconclusive: 5.01 µM [inhibitor, partial curve] | 
23 | CS(=O)(=O)c1ccc2c(c1)SC1=NC(=O)/C(=C/c3ccco3)C(=N)N12 | inconclusive: 31.6 µM [inhibitor, partial curve] | 
24 | O=C1Nc2ccccc2/C1=N\N=C\C1=C(N2CCOCC2)C(=C\c2ccccc2)/CC1 | inconclusive: 12.6 µM [inhibitor, partial curve] | 
25 | CCCNC(=O)Cn1cnc2sc(C(=O)Nc3ccc4c(c3)OCO4)c(C)c2c1=O | inconclusive: 25.1 µM [inhibitor, single point] | 

Row | Compound | Potency | activity change, negative = inhibition
26 | O=S(=O)(c1ccccc1)N1CCC2(CCCN(Cc3nccs3)C2)CC1 | inactive | 
27 | Clc1ccc(OCc2nc(-c3ccncc3)no2)c(Cl)c1 | inactive | 
28 | CC(Sc1nnc(C(C)N(C)C)n1-c1ccc(Cl)cc1)C(=O)Nc1ccc2c(c1)OCO2 (stereo not drawn) | inconclusive: 0.199 µM [inhibitor, full curve, poor fit] | 
29 | CN(C)c1ccc(-c2cncnc2Nc2ccc(F)cc2)cc1 | inactive | 
30 | COC1(c2ccccc2)NC(=S)NN=C1c1ccccc1 (stereo not drawn) | inconclusive: 25.1 µM [inhibitor, partial curve] | 
31 | Cc1cccc(OCC(=O)Nc2ccccc2N2CCCCC2)c1 | inactive | 
32 | O=C1C(=O)c2ccccc2C(O)=C1Cc1ccccc1 |  | inactive: -8.68% [at 11.4 µM]
33 | CC(NC(=O)Cc1ccc(-c2ccccc2)cc1)c1ccccc1 (stereo not drawn) | inconclusive: 31.6 µM [inhibitor, single point] | 
34 | Cn1c(C(=O)NC2CCCCC2)cc2sccc21 | inconclusive: 12.6 µM [inhibitor, partial curve] | 
35 | O=C(CSc1nc(C2CC2)nc2ccccc12)Nc1ccc2c(c1)OCCO2 | inconclusive: 10 µM [inhibitor, partial curve] | 
36 | N#Cc1c(C(F)(F)F)cc(-c2ccccc2)nc1SCc1nc(N)nc(N2CCOCC2)n1 | inactive | 
37 | O=C(c1ccc2c3c(cccc13)CC2)N1CCOCC1 | inconclusive: 39.8 µM [inhibitor, single point] | 
38 | Cc1nnc(NC(=O)c2ccc3c(c2)C(=O)N(CC2CCCO2)C3=O)s1 (stereo not drawn) | inactive | 
39 | CCC(C)NC(=O)c1c(N)n(/N=C/c2ccccn2)c2nc3ccccc3nc12 (stereo not drawn) | inactive | 
40 | COc1cccc(-c2ccc3ncnc(NCc4ccccc4OC)c3c2)c1 | inactive | 
41 | c1ccc2sc(SN3CCOCC3)nc2c1 | active: 20 µM | 
42 | CCOC(=O)c1ccc(NC(=S)Nc2ccccn2)cc1 | inconclusive: 7.94 µM [inhibitor, full curve, poor fit] | 
43 | CCN1CC2=C(OC(N)=C(C#N)C2c2cccs2)/C(=C/c2cccs2)C1 (stereo not drawn) | inactive | 
44 | CCOC(=O)c1cnc2cc3c(cn2c1=O)CCCC3 | inconclusive: 6.31 µM [inhibitor, single point] | 
45 | O=C1/C(=C\c2ccccc2)CCc2c1[nH]c1ccccc21 | inconclusive: 3.98 µM [inhibitor, partial curve] | 
46 | COc1ccc2c(c1)OCC1=C2CCC2(C)C(=O)CC=C12 (stereo not drawn) | inconclusive: 31.6 µM [inhibitor, single point] | 
47 | O=c1cc(CSc2nnc(COc3ccccc3)o2)c2ccccc2[nH]1 | inactive | 
48 | CN(C)c1ccc(/C=N/NC(=S)NCc2ccccc2)cc1 | inconclusive: 31.6 µM [inhibitor, single point] | 
49 | Cc1cc(N=Cc2c(O)n(-c3ccc4c(c3)OCO4)c(=O)c3ccccc23)ccn1 | inconclusive: 25.1 µM [inhibitor, partial curve] | 
50 | C1=Nc2c(Nc3ccccc3)ncnc2Oc2ccccc21 | inactive | 

Row | Compound | Potency | activity change, negative = inhibition
51 | N#Cc1ccc(-c2ccccc2)nc1SCC(=O)c1cc2ccccc2oc1=O | inconclusive: 31.6 µM [inhibitor, single point] | 
52 | CCOC(=O)Nc1ccc(C(N)=O)cc1 | inactive | 
53 | Cc1ccc(SCCC(=O)NCC2CCCO2)cc1 (stereo not drawn) | inactive | 
54 | COc1cc(C2CC(=O)N3CN(Cc4ccccc4)CSC3=C2C#N)ccc1OCc1ccccc1 (stereo not drawn) | inconclusive: 20 µM [inhibitor, partial curve] | 
55 | Cc1nc(N2CCOCC2)c2nc(-c3ccccc3)n(CCN3CCCCC3)c2n1 | inactive | 
56 | CCOC(=O)C(C(=O)OCC)c1cc(Br)c2noc3c2c1C(=O)c1ccccc1-3 | inconclusive: 15.8 µM [inhibitor, partial curve] | 
57 | CCOCCCNS(=O)(=O)c1ccc(NC(=O)N2c3ccccc3Sc3ccccc32)cc1 | inconclusive: 20 µM [inhibitor, partial curve] | 
58 | Cc1ccccc1NS(=O)(=O)c1cc(C(=O)NCCSC2CCCCC2)ccc1C | inconclusive: 25.1 µM [inhibitor, single point] | 
59 | Oc1c(C(O)(c2ccccc2)c2ccc3ccccc3c2O)ccc2ccccc12 |  | inactive: -29.5% [at 11.4 µM]
60 | COC(=O)c1ccc2c(c1)SC1=C(CCCC1=O)N2 | inconclusive: 39.8 µM [inhibitor, single point] | 
61 | CCOc1cc(/C=C2\SC(=S)N(Nc3ccccc3)C2=O)ccc1O | active: 12.6 µM | 
62 | CCc1nnc(NC(=O)NCN2C(=O)C3C4C=CC(C4)C3C2=O)s1 (stereo not drawn) | inactive | 
63 | IC(I)I | inconclusive: 31.6 µM [inhibitor, single point] | 
64 | CCOC(=O)c1c(N)n(CCOC(=O)c2cccs2)c2nc3ccccc3nc12 | inconclusive: 20 µM [inhibitor, single point] | 
65 | COc1cc(-c2cc(C(F)(F)F)n3ncc(C(=O)O)c3n2)cc(OC)c1OC | inconclusive: 7.94 µM [inhibitor, full curve, poor fit] | 
66 | CCOC(=O)C1=C(c2ccccc2)N=c2s/c(=C\c3ccc(O)cc3)c(=O)n2C1c1cccs1 (stereo not drawn) | inconclusive: 25.1 µM [inhibitor, single point] | 
67 | Cc1ccc(CN(Cc2cc3cc4c(cc3[nH]c2=O)OCCO4)Cc2nnnn2Cc2ccco2)cc1 | inconclusive: 3.16 µM [inhibitor, full curve] | 
68 | COc1cc(/C=N/NC(=O)C2c3ccccc3Oc3ccccc32)ccc1O | inconclusive: 15.8 µM [inhibitor, partial curve] | 
69 | COc1cc(OC)c(C2CC(=O)N3CN(c4ccc(C)cc4)CSC3=C2C#N)cc1OC (stereo not drawn) | inconclusive: 12.6 µM [inhibitor, partial curve] | 
70 | O=C1/C(=C\c2ccc(-c3ccccc3Cl)o2)SC(=S)N1CC1CCCO1 (stereo not drawn) | inconclusive: 12.6 µM [inhibitor, partial curve] | 
71 | CCCc1cc(-c2n[nH]c(C)c2-c2ccc(C(=O)OCC)o2)c(O)cc1O | inconclusive: 39.8 µM [inhibitor, single point] | 
72 | CC1=c2c(oc3cc(O)c(Nc4c(C)cc(O)cc4O)c(C)c23)=CC(=O)C1=Nc1c(C)cc(O)cc1O | inconclusive: 3.98 µM [inhibitor, single point] | 
73 | O=C(Nc1c(C(=O)O)[nH]c2ccccc12)NC1CCCCC1 | inconclusive: 6.31 µM [inhibitor, partial curve, poor fit] | 
